# Results: PubChem BioAssay AID1346428 (National Center for Advancing Translational Sciences (NCATS), 2018)
# About 1,200 (2.5%) of roughly 48,000 compounds were called active. Inconclusive results (about 2%) are left out.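 The calls were made as follows: active = activation of at least 60% and not above a set upper limit (about 1 call in 100 departs from these limits); inconclusive = activation of 40% to 60%, or above that upper limit; inactive = activation under 40%.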 The list shows a part of the results.
# Molecular target: Probable G-protein coupled receptor 32 (Homo sapiens) (UniProt O75388)
# Assay: qHTS for Agonists of Human Resolvin D1 Receptor DRV1; also: 0% is about no effect
# Conditions: CHO-K1 GPR32 beta-arrestin PathHunter luminescence, 90 min; at 76.9 µM; active compounds read high; zero percent set by DMSO-only wells
# Summary of the method: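 Luminescent readout of beta-Gal complementation quantifies ligand-induced beta-arrestin association with GPR32 in CHO-K1 cells; 90 min compound incubation at 37 °C, detection 1 h at room temperature.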
# UniProt O75388, sequence (O75388 whole entry, looked up): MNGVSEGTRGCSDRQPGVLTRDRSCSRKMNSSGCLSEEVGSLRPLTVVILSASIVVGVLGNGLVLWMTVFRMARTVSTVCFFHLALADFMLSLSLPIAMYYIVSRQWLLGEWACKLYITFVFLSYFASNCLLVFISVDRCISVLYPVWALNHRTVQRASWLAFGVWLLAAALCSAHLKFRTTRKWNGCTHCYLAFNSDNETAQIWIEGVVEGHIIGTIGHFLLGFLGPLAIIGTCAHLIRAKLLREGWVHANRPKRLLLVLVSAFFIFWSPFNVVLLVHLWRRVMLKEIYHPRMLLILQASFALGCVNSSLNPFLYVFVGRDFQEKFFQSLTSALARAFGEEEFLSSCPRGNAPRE
row,Structure (SMILES),activation
1,CCN1CCN(CCCNC(=O)c2cnn(-c3ccc(C)cc3)c2C2CCN(C(=O)OC(C)(C)C)CC2)CC1,inactive: -8.03%
2,Cc1ccc(NC(=O)c2cc(-c3cccs3)on2)cc1C,inactive: 24.4%
3,COc1ccc(S(=O)(=O)NCCS(=O)(=O)N2CCN(c3ccccc3F)CC2)cc1,inactive: -4.53%
4,c1csc(-c2nc3ccccn3c2Nc2ccc3c(c2)OCCO3)c1,inactive: -2.79%
5,COc1cccc(-n2c(SCC(=O)Nc3ccc(F)cc3F)nc3c([nH]c4ccccc43)c2=O)c1,inactive: -45.6%
6,CCCCOC(=O)c1ccc(NC(=O)CSc2nc3c(c(=O)[nH]2)CCC3)cc1,inactive: -5.1%
7,CC(=O)c1ccc(N2CCN(c3ncnc4onc(-c5ccc(Cl)cc5)c34)CC2)cc1,inactive: 3.33%
8,COc1cc(-c2nc3cccc(C)n3c2Nc2ccc3c(c2)OCCO3)ccc1O,active: 61.2%
9,COc1ccccc1CNC(=O)c1cccc(NC(=O)N2CCSc3ncccc32)c1,inactive: 8.09%
10,CCOc1ccccc1C(=O)NCC(c1ccc(N(C)C)cc1)N1CCc2ccccc21 (centres undefined),inactive: -37.5%
11,Oc1c(C(c2ccc(Cl)cc2)N2CCCC2)sc2nc(-c3ccco3)nn12 (centres undefined),inactive: 18.2%
12,CCOc1cc(-c2ccc(OC(=O)c3ccc(Cl)cc3)c(OC)c2)cc(=O)c2c(C)oc(C)c12,inactive: -17.3%
13,Cc1c(C(=O)NCc2ccc(F)cc2)sc2nc(-c3ccccc3)cn12,inactive: -3.92%
14,Cc1nnc(N2C(=O)c3oc4ccccc4c(=O)c3C2c2ccc(F)cc2)s1 (centres undefined),inactive: 0.238%
15,COc1ccc(CCNC(=O)c2ccc(Cn3c(=O)c4ccccc4n(Cc4ccccc4Cl)c3=O)cc2)cc1OC,inactive: -5.01%
16,COC(=O)c1c(-c2ccc(Cl)cc2)noc1N1CCN(c2cccc(OC)c2)CC1,inactive: -12.3%
17,O=C1c2c(O)cccc2Cc2cccc(O)c21,inactive: 47.1%
18,Cc1ccc(C(=O)c2cn(Cc3cccc(F)c3)c3nc(C)ccc3c2=O)cc1,inactive: -2.73%
19,Cc1ccc(NC(=O)Cn2cc(C(=O)c3cccs3)c3ccccc32)cc1C,inactive: -11.4%
20,O=C(CCSCc1cnn(-c2ccccc2)c1-n1cccc1)NCc1ccc(Cl)cc1,inactive: -12.4%
21,Cc1ccc(-n2c(=O)c3c(cnn3C)n(CC(=O)Nc3cc(C)ccc3C)c2=O)cc1,inactive: 9.43%

row,Structure (SMILES),activation
1,O=C(CCn1cccn1)Nc1cccc(C(F)(F)F)c1,inactive: -2.25%
2,Cc1oc2ncnc(N3CCOCC3)c2c1C(=O)NCc1ccccc1,inactive: -1.56%
3,COc1ccc(C(=O)NCc2ccc3c(c2)CCN3C(=O)c2cccc(C)c2)cc1OC,inactive: -11%
4,Cc1nc2sccn2c(=O)c1S(=O)(=O)N1CCN(c2ccc(F)cc2)CC1,inactive: -13.2%
5,COc1ccc(CCNC(=O)CSc2nc3ccccc3nc2Cc2ccc(Cl)cc2)cc1OC,inactive: -9.83%
6,O=C(O)CCCC[P+](c1ccccc1)(c1ccccc1)c1ccccc1,inactive: -9.91%
7,CC(C)Cn1c(-c2ccc(S(=O)(=O)N3CCCC3)cc2)csc1=Nc1ccccc1,inactive: 41.8%
8,CCCN(Cc1cccs1)C(=O)Nc1ccc(Br)c(C)c1,inactive: -1.83%
9,CCCCOc1ccccc1NC(=O)Cn1c(-c2cncs2)nc2ccccc21,inactive: -12.7%
10,Cc1oc(-c2ccccc2)nc1CNS(=O)(=O)c1ccc(Cl)cc1,active: 115%
11,O=C(NC1CC(=O)N(c2ccccc2)C1)c1cc2ccccc2o1 (centres undefined),inactive: -2.04%
12,CCOc1ccc(-c2cc(C(=O)NCc3ccc(OC)cc3)c3c(-c4ccc(F)cc4)[nH]nc3n2)cc1,inactive: -14.5%
13,CCCOc1ccc(NC(=O)CC2C(=O)N(c3cccc(C)c3)C(=O)N2CCc2ccncc2)cc1 (centres undefined),inactive: -21.8%
14,CN1CCN(Cc2c(O)ccc3cc(-c4ccccc4)c(=O)oc23)CC1,inactive: 3.68%
15,COc1ccc(Nc2nc3c(S(=O)(=O)c4ccccc4)nnn3c3ccc(Cl)cc23)cc1OC,inactive: 4.02%
16,CCOC(=O)c1cccc(NC(=O)c2cc3c(=O)n(Cc4cccnc4)ccc3nc2C)c1,inactive: -7.91%
17,Cc1cccc(-c2nc(N3CCN(c4ccc(F)cc4)CC3)c3ccccc3n2)c1,inactive: 3.35%
18,CCc1ccc(C(=O)c2cn(CC(=O)Nc3ccc(OC)cc3)c3cc4c(cc3c2=O)OCCO4)cc1,inactive: 23.9%
19,O=C(Nc1ccc(OC(F)(F)F)cc1)C(NS(=O)(=O)c1cccc2nsnc12)c1ccccc1 (centres undefined),inactive: -25.6%
20,O=C(O)CCCn1cc(NC(=O)COc2ccccc2F)cn1,inactive: -1.3%
21,Cc1ccc(C)c(N2CCN(C(=O)c3cccn4c(=O)c5ccccc5nc34)CC2)c1,inactive: 1.4%

row,Structure (SMILES),activation
1,CC(C)C[C@@H](N)C(=O)O,inactive: -10.7%
2,CCCCOC(=O)c1ccc(NC(=O)c2cc(=O)c3ccccc3o2)cc1,inactive: -3.34%
3,Cc1cc(SCC(=O)Nc2ccc(C(F)(F)F)cc2)nc(=O)[nH]1,inactive: 18.5%
4,CCOc1ccc(NC(=O)c2ncn(-c3ccccc3)n2)cc1,inactive: 12.2%
5,Cc1ccc(-c2nnn3c2nc(N2CCC(C)CC2)c2ccccc23)cc1,inactive: 26.3%
6,Cc1ccc(OCCSc2nc3ccccc3n2CC(=O)NC(C)C)cc1,inactive: -1.24%
7,O=C1CSC2(C(=O)N(Cc3c(F)cccc3Cl)c3ccccc32)N1c1ccc(F)c(F)c1 (centres undefined),inactive: -8.44%
8,O=C(CSc1ncc2c(n1)-c1cc(Cl)ccc1N(Cc1ccccc1)S2(=O)=O)NCc1ccccc1,inactive: -21.9%
9,Cc1ccc(C(=O)Nc2nnc(S(=O)(=O)N3CCCc4ccccc43)s2)cc1,inactive: 28.5%
10,CCOc1ccc(S(=O)(=O)NCCc2csc3nc(-c4cccc(C)c4)nn23)cc1,inactive: 3.28%
11,Fc1ccc(Nc2c(-c3c[nH]c4ccccc34)nc3ccccn23)cc1,inactive: 11.5%
12,Cc1cccc(CSc2ccc3nnc(CCNS(=O)(=O)c4ccccc4)n3n2)c1,inactive: -29.3%
13,COCCCNC(=O)C1CCN(C(=O)c2cc3sccc3n2Cc2ccc(Cl)cc2)CC1,inactive: 2.5%
14,COc1ccc(CCNC(=O)c2ccc(CSCc3ccc(C)cc3)o2)cc1OC,inactive: 11.5%
15,COc1ccc(C(=O)Nc2ccc3nc(N4CCCCC4)cc(C)c3c2)cc1OC,inactive: -13.2%
16,Cc1nc2c(C(=O)NCCc3ccccc3)c[nH]n2c(=O)c1Cc1ccccc1F,inactive: 18%
17,COc1cccc(C(=O)Nc2ccc(C(=O)OCc3cc(=O)n4cc(C)sc4n3)cc2)c1,inactive: -23.7%
18,O=S(=O)(c1ccc(Cl)cc1)N1CCC(c2ccncc2)CC1,inactive: -3.68%
19,O=C(Nc1nnc(S(=O)(=O)N2CCOCC2)s1)c1cccc(Br)c1,active: 93.4%
20,COc1cc(NS(=O)(=O)c2cc3c(cc2C)n(C)c(=O)c(=O)n3C)cc(OC)c1,inactive: 7.57%
21,Cc1ccc(-c2cc3ncc4c(n3n2)-c2ccccc2OC4)cc1,inactive: -2.01%

row,Structure (SMILES),activation
1,CCC(Sc1ccc2nnc(CCNS(=O)(=O)c3ccc(OC)cc3)n2n1)C(=O)OC (centres undefined),inactive: -16%
2,COc1cc(NC(=O)c2cc3cc4ccc(OC)c(Cl)c4nc3s2)cc(OC)c1,inactive: -19.2%
3,COc1cc(NC(=O)NCCn2nnc3cc(S(=O)(=O)N(C)C)ccc32)cc(OC)c1OC,inactive: -5.47%
4,Cc1cc(C)cc(NC(=O)CSc2nc3c(cnn3-c3ccc(F)cc3)c(=O)[nH]2)c1,inactive: -4.8%
5,Cc1nc2ccc(S(=O)(=O)NCC(=O)Nc3ccc(C)c(Cl)c3)cc2s1,inactive: -4.76%
6,Cc1ccccc1C(=O)NC1(C(F)(F)F)C(=O)Nc2c1c(=O)[nH]c(=O)n2CCc1ccccc1 (centres undefined),inactive: 0.93%
7,COc1ccc(-c2nc3c4ccccc4n(CC(=O)Nc4ccc(C(C)=O)cc4)c(=O)n3n2)cc1,inactive: 7.47%
8,Cc1cccc(NC(=O)CN(C)S(=O)(=O)c2cnc[nH]2)c1C,inactive: 11.3%
9,Cc1ccc(Cl)cc1NC(=O)c1cc(-c2ccc3c(c2)OCCO3)on1,inactive: 4.24%
10,O=C(Cc1ccc(NC(=O)N2CCCCc3ccccc32)cc1)Nc1ccccc1Br,inactive: -1.25%
11,Cc1cc(C)c(NC(=O)CN2C(=O)CCn3nc(-c4cccn4C)cc32)c(C)c1,inactive: -3.84%
12,Cc1ccc(-n2ncc(C(=O)NCCCN3CCN(C)CC3)c2C2CCN(C(=O)OC(C)(C)C)CC2)cc1,inactive: -2.65%
13,Cc1ccccc1CN1c2ccccc2-c2nc(SCC(=O)Nc3cc(F)ccc3F)ncc2S1(=O)=O,inactive: 17.4%
14,CCCCC(=O)N1CCN(c2nc3c(C)c(C)ccc3s2)CC1,active: 69.1%
15,CCCCNc1cc(N2CCN(C3CCCCC3)CC2)c2noc3c2c1C(=O)c1ccccc1-3,inactive: -6.69%
16,Cc1cc(C)c(NC(=O)CSc2cn(CC(=O)N3CCOCC3)c3ccccc23)c(C)c1,inactive: -14.8%
17,CCOc1ccc(NC(=O)c2oc3ccccc3c2NC(=O)Cc2cccs2)cc1,inactive: 6.06%
18,CCN1CCN(C(=O)c2ccc3c(c2)N(Cc2ccc(Cl)cc2)C(=O)c2ccccc2S3=O)CC1 (centres undefined),inactive: 0.619%
19,CCc1ccc(Cn2c(CNS(=O)(=O)c3ccc4c(c3)CCCC4)nc3cccnc32)cc1,inactive: -35.2%
20,Cc1cc(C)c2c(n1)SCC(=O)N2CC(=O)Nc1cccc(C)c1C,inactive: -19.2%
21,COc1cccc(Cn2c(=O)n(CC3CCC(C(=O)N4CCOCC4)CC3)c(=O)c3sccc32)c1 (centres undefined),inactive: -5.14%
